Paper PMC4336329 (PLoS ONE, 2015)
In all, about 310,000 compounds went through this assay and about 14,000 (4.5%) showed an effect of 50% or more. Effects have a minus sign here. This is one part of the list.

Molecular target: human ether-à-go-go-related gene (hERG) potassium channel (human, UniProt Q12809)
Assay: primary screen, population patch clamp on CHO cells stably expressing hERG
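Note: peak tail current of the secondary pulse compared with the same well before compound.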

Sequence of human ether-à-go-go-related gene (hERG) potassium channel (Q12809 whole entry, looked up): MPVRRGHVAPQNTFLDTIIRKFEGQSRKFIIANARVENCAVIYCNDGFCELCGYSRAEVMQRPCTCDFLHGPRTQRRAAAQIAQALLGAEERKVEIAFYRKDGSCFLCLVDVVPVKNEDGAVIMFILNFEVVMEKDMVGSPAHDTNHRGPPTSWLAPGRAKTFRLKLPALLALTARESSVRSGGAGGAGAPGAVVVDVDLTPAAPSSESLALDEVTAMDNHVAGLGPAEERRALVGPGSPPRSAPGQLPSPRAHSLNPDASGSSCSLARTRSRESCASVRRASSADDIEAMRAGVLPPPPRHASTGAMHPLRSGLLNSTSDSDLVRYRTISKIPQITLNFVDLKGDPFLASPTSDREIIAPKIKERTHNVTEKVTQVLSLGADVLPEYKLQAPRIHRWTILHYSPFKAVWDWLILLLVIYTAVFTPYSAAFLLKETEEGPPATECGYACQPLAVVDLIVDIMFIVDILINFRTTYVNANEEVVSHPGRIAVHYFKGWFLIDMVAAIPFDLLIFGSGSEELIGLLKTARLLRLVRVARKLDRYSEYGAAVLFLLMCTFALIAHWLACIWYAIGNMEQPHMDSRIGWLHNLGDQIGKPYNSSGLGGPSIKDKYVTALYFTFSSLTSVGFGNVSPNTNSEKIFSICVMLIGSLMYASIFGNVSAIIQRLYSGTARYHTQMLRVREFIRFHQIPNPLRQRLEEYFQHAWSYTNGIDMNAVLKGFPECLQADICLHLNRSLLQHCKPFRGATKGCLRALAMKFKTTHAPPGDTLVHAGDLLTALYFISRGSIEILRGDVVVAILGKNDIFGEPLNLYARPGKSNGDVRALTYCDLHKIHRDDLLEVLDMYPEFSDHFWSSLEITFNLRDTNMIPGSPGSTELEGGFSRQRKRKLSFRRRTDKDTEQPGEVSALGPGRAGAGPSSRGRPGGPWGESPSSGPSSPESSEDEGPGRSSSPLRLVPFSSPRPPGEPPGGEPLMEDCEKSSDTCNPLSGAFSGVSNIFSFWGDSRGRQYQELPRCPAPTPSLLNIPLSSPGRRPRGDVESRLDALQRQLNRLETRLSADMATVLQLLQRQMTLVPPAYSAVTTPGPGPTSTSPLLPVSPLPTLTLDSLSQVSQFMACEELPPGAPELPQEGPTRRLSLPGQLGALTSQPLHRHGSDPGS

SMILES	hERG current change (%, negative = inhibition) at 10uM [%]
O=C(Nc1ccc(NC(=O)C2CC2)nc1)c1cccnc1	7.26
COCCn1c(SCc2ccc(F)cc2)nc2ccccc2c1=O	8.09
O=C(CCSc1nnc(-c2ccncc2)o1)Nc1cccc2ccccc12	-20.5
CC12CN3CC(C)(CN(C1)C3c1ccc3c(c1)OCO3)C2O (stereo not shown)	6.36
COc1ccc(C(=O)Nc2ccc(N3CCOCC3)cc2)cc1OC	1.36
CCCOC(=O)c1cc(-c2ccc(C=O)o2)ccc1Cl	-7.95
CC(/C=C/c1ccccc1)=N\NC(N)=S	12.3
CCC(=O)N1CCc2cc(S(=O)(=O)N3CCN(c4cc(Cl)ccc4C)CC3)ccc21	2.72
CCCCn1c(N)c(N(CCOC)C(=O)c2c(CC)noc2C)c(=O)[nH]c1=O	19.9
CC1CCN(S(=O)(=O)c2ccc(C(=O)N3CCCCC3C(=O)O)cc2)CC1 (stereo not shown)	20.3
CCOC(=O)/C(C(=O)Nc1ccc(Br)cc1)=C1/NC(C)(C)Cc2ccccc21	3.96
COc1cccc(/C(O)=C2/C(=O)C(=O)N(Cc3cccnc3)C2c2ccco2)c1 (stereo not shown)	23
O=C1Nc2ccc(Br)cc2C1(O)c1ccccc1 (stereo not shown)	4.3
CCOC(=O)N1CCN(C(=O)c2ccc3c(c2)N=C(C)c2cc(Cl)ccc2S3)CC1	-25.6
CC1(C)CC(=O)C2=C(C1)Nc1ccccc1NC2	12.4
Cc1cc(-c2cccs2)c(C#N)c(=S)[nH]1	10.8
O=C(CSc1nnc(Cc2ccccc2)n1-c1ccc(F)cc1)N1CCOCC1	-13.8
Cc1cccnc1NC(=S)NC(=O)c1oc2ccccc2c1C	14.2
N#CC(C#N)=C1C=CC=CN1/C(=C\c1ccco1)C(=O)c1ccc(Cl)cc1	-36
O=C(CSc1nc2c(cnn2-c2ccc(F)cc2)c(=O)[nH]1)N1CCCCC1	1.82
CC(C)(C)[C@H]1C=C(C(=O)N2CCN(Cc3ccc4c(c3)OCO4)CC2)O[C@@H](OCCCCO)C1	-23.4
Cc1ccc(C(=O)Nc2ccccc2C(=O)N2CCCC(C)C2)cc1 (stereo not shown)	-0.444

SMILES	hERG current change (%, negative = inhibition) at 10uM [%]
C[C@@H](C(=O)Nc1ccc2ccccc2c1)[C@@H]1C[C@@]1(C)[C@@H](NC(=O)c1cccnc1)c1ccccc1	-3.53
CCOC(=O)COc1ccc(/C=C2/C(=O)NN(c3ccc(F)cc3)C2=O)cc1OC	12.4
Cc1ccc(C(=O)NCC(=O)N(C)CC(=O)Nc2c(Cl)cccc2Cl)s1	7.65
Br.CC(C)CC(N)C(=O)OCc1ccc([N+](=O)[O-])cc1 (stereo not shown)	7.33
COCCNC(=O)C(c1ccccc1C)N(C(=O)Cn1nnc2ccccc21)c1cccnc1 (stereo not shown)	14.5
Cc1ccc(S(N)(=O)=O)cc1	21.4
[N-]=[N+]=N[C@@H](CCN1CC[C@H](NC(=O)OCc2ccccc2)CCC1=O)c1ccccc1	-43.5
O=C(CCCc1nc2ccccc2s1)N1CCN(c2ccccc2)CC1	-39.9
CSc1nnc(C)c(=O)n1COC(=O)c1ccccc1	-3.19
CCOC(=O)CC(NC(=O)Cn1nnc(-c2ccccc2F)n1)c1ccccc1Cl (stereo not shown)	12.1
Cc1c(C)n(C(=O)CSc2nc3ccccc3[nH]2)c2ccccc12	7.29
CC(=O)c1cccc(NC(=O)N2CCC(NC(=O)C3CCCCC3)CC2)c1	7.09
OCCCc1cn(-c2ccccc2)c2ccccc12	7.41
CCOC(=O)C1C(=O)NC(N2CCOCC2)=NC1c1ccco1 (stereo not shown)	10.7
Cc1ccc(C(NC(=O)c2ccccc2S(C)(=O)=O)c2ccccc2)cc1 (stereo not shown)	-30.3
CCOC(=O)c1c(C)c(C(=O)NCCN2CCOCC2)c(C)n1C	15.1
O=C(CN1C(=O)NC2(CCCC2)C1=O)c1ccc(Cl)s1	3.4
Cc1nn(C)c(C)c1CN(Cc1nc(-c2cc(F)ccc2F)oc1C)C1CC1	-8.99
Nc1nc(SCC(=O)Nc2c(Br)cc([N+](=O)[O-])cc2Br)n[nH]1	10.5
Cc1ccc(NS(=O)(=O)c2ccc3c(c2)CCC(=O)N3)cc1	-2.02
Cc1ccc(N/C=C2/Sc3ccccc3NC2=O)cc1	-0.823
COCCNC(=O)Cc1ccc(F)cc1	5.57

SMILES	hERG current change (%, negative = inhibition) at 10uM [%]
CCCCC(=NCCO)C1=C(O)C(C(=O)OC)C(C)(C)CC1=O (stereo not shown)	13.1
CCOc1cccc(-c2nn3c(-c4ccco4)nnc3s2)c1	-49.4
CCN(CC(=O)Nc1ccc(NC(C)=O)cc1)C(=O)COc1ccc(C(=O)c2ccccc2)cc1	0.309
C/C(=N\Nc1ncnc2sc(C)c(C)c12)c1ccccn1	-35.5
O=C(Nc1ccccc1C(=O)O)c1cc(S(=O)(=O)N2CCCCCC2)ccc1Cl	11.6
O=C(Cn1c2ccc(F)cc2c2nc3n(c(=O)c21)CCS3)N1CCCC1	6.84
CCNC(=O)c1ccccc1-c1nc(-c2ccccc2Cl)no1	-5.83
COc1ccccc1N1CCN(S(=O)(=O)c2cc3[nH]c(=O)c(=O)[nH]c3cc2C)CC1	12.1
C[C@@H](O)[C@H]1C(=O)N2C(C(=O)O)=C(S[C@@H]3CN[C@H](C(=O)N(C)C)C3)[C@H](C)[C@H]12	21.1
O=C(COc1ccc(Br)cc1)N1CCN(c2ncccn2)CC1	-83.7
O=C(OC(C(=O)NCC1CCCO1)c1ccccc1F)c1ccco1 (stereo not shown)	14.5
O=C(Nc1nc2c(s1)CN(Cc1ccccc1)CC2)c1c(F)cccc1F	-8.2
O=C(CN1CCN(c2ccccc2O)CC1)NC(=O)NCc1ccco1	-2.83
NC(=O)C1=C[C@@H](c2coc3ccccc3c2=O)C[C@@H](OCCCCO)O1	4.57
CN(CC(=O)Nc1ccccc1Br)C(=O)CN1CCN(c2ccccc2Cl)CC1	-29.6
Cc1ccc(S(=O)(=O)N2CCC(C(=O)Nc3ccccc3N3CCCCC3)CC2)cc1C	-9.46
Cc1c(Cl)cccc1-c1ccc(CNCc2ccccn2)o1.Cl	8.15
NS(=O)(=O)c1ccc(CCNS(=O)(=O)c2cccs2)cc1	8.29
CC1C(Br)C(=O)NC(=O)N1Cc1ccccc1 (stereo not shown)	17
CCOC(=O)c1c(C)[n+]([O-])c2ccc3c(non3O)c12	21.6
O=S(=O)(Nc1c(F)cccc1F)c1ccc2c(c1)OCCO2	9.82
CC(=O)c1ccc(NC(=O)c2sc3nc4n(c(=O)c3c2C)CCCCC4)cc1	-0.301

SMILES	hERG current change (%, negative = inhibition) at 10uM [%]
CCOC(=O)Cc1c(C)nc(SC)[nH]c1=O	17.8
COc1cc(C(C)=O)ccc1OCCCN1CCC(Cc2ccccc2)CC1.O=C(O)C(=O)O	-77.9
Cc1ccc2c(c1)C1NC(=S)NC(C)(O2)C1C(=O)Nc1ccc(Cl)cc1 (stereo not shown)	8.39
O=c1[nH]cc(S(=O)(=O)N2CCN(c3cccc(Cl)c3)CC2)c(=O)[nH]1	-17.3
O=C(CN(C(=O)CCC(=O)Nc1ccccn1)c1cccc(F)c1)NCc1ccc(F)cc1	-4.26
O=C(NCc1ccccc1Cl)c1cccc(C(F)(F)F)c1	-9.11
Cc1csc2c(N3CCN(C(=O)c4ccc(C(C)(C)C)cc4)CC3)ncnc12	-33
Cn1c(C(=O)NCc2ccccn2)cc2c(=O)n3ccccc3nc21	-1.42
Cc1cc(=O)oc2cc(OC(=O)C3CCN(C(=O)c4ccc(F)cc4)CC3)ccc12	3.43
CCOC(=O)c1cc(-c2ccc(C)c([N+](=O)[O-])c2)nc2c1c(=O)n(C)c(=O)n2C	-6.2
COC(=O)C1CSc2[nH]c(=O)sc2C1c1ccc(OC)c(OC)c1 (stereo not shown)	0.0419
COc1ccc(C(=O)O/N=C(\C)c2cnccn2)cc1	8
Oc1cc2ccccc2cc1-c1nnc2n1-c1ccccc1SC2	-8.27
CCOC(=O)C1CCN(c2c(NCCN(CC)c3ccccc3)c(=O)c2=O)CC1	-14.4
c1ccc(-c2cnnc(N3CCOCC3)n2)cc1	-4.16
CNc1nc(N)c([N+](=O)[O-])c(Nc2cccc(F)c2)n1	16.3
O=C(c1cc2c([nH]c1=O)CCCC2)N1CCc2c([nH]c3ccccc23)C1c1ccccc1F (stereo not shown)	-4.1
O=C1C(Cl)=C(NCCN2CCCCC2)C(=O)c2ccccc21	-45.3
CCCCCCC(=O)NNC(=O)CC(=O)Nc1ccccc1C(=O)O	24.4
O=C(NC(=S)NCCC1=CCCCC1)c1cncc(Br)c1	17.4
CCC(=O)Nc1ccc(Nc2nc(Cl)nc(Nc3ccc(NC(=O)CC)cc3)n2)cc1	14.8
CC(c1ccccc1)C(NC(=O)OCC1c2ccccc2-c2ccccc21)C(=O)O (stereo not shown)	7.8
